Data on 24 sequences can be found in the supplement of paper PMC11417369.

The other results are listed elsewhere or left out.

The assay deals with PfHDP1 homeodomain (GST-tagged). The assay can be described thus: gcPBM binding intensity (ln(normalized median fluorescence intensity)); higher = stronger DNA binding. The method in brief: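 Binding intensity is the highest Masliner-normalised natural-log median intensity over replicate spots in either probe orientation. To obtain it, GST-tagged P. falciparum DNA-binding domains made in E. coli were incubated for 1 h on an Agilent 4 × 180k array of primer-extended double-stranded 36-bp intergenic genomic probes plus negative controls. Detection used Alexa488 anti-GST antibody with scanning at 488 nm.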
For “AATGTGCAAACAAACTGTACTTTTTTTTTTTTTTTT [XGTACX_site928]”, the “gcPBM binding intensity (ln)” value was 10.6. As for “TATTTTTATTTTTAAACCATATATATATATATATAT [CACACA_negctrl_site1560]”, the “gcPBM binding intensity (ln)” value turned out to be 9.37. As for “TATAATGATGATGATAGTACGTATGAGTAAGAAAAA [XGTACX_site31]”, the figure is 7.12; as for “ATAAAAATATTTATTACACACATAAGCAAAAAAAAA [CACACA_site3484]”, 6.65; as for “TATAGTTTCATTCTTTGTACATATATATTATTATTA [XGTACX_site8527]”, 6.7. As for “ATTATTAAGGTTTATTCAAAAAAGACGTTTTTAAAT [CACACA_negctrl_site1059]”, the figure is 5.99; as for “AGACACGTATACGATGCACACGTATGCTTTATATAT [CACACA_site9363]”, 8.32; as for “TATGAGAAAAAAAGTACATGCACAAAATGTATATGT [TGCATGCA_site789]”, 8.07. “ATTATATAAACCAAATGTACAAAAAGGTCGTAGTGG [XGTACX_site1298]”: the “gcPBM binding intensity (ln)” value came out at 7.09. With “CAACATTGTTCCTATTGTACATGAACTGTTCATACG [XGTACX_site4070]”, the “gcPBM binding intensity (ln)” value was determined as 6.56.

Consider “ATATGTACAAAATAAGCACACACAAAAAAAAAAAAA [CACACA_site8984]”, for which the “gcPBM binding intensity (ln)” value stood at 6.29. Take “TTTTTTTTTTTTTTTTGTACATAAATTTTTATTAGA [XGTACX_site6409]”: the “gcPBM binding intensity (ln)” value was determined as 6.16.

As to “AAAAAAAAAAAAAATATATATATATATATATATATA [CACACA_negctrl_site540]”, the “gcPBM binding intensity (ln)” value turned out to be 9.43.

As for “TCTTGATTAACTTAAAAAAAAAAAAAAAAAAAAAAA [CACACA_negctrl_site458]”, the “gcPBM binding intensity (ln)” value is 6.02. With “TTGGCTATAGCCAATTGTACTTTTTCTCTTTGGCTT [XGTACX_site1119]”, the “gcPBM binding intensity (ln)” value came to 6.2. As for “GACATATATACCAAACGTACATATGTGCAAGCATAA [XGTACX_site3089]”, the figure is 10.1; as for “CATATAATAAATAATTGTACTTGATATAATATTATG [XGTACX_site3562]”, 6.1; as for “TATATTTGTGCGTGTACACATTTGAAAAAATATATA [CACACA_site5079]”, 7.23. As for “TTTTTTTTTTTTTTTGCACACTTAAATTTGGTGGCT [CACACA_site5319]”, the figure is 9.03; as for “GCTTAATACAGAATAACACACAAAATAAATAAATAA [CACACA_site4041]”, 6.54.

In the case of “TATATAATTATTTTTTGTACTCATAATAATATGAAA [XGTACX_site289]”, the “gcPBM binding intensity (ln)” value was found to be 6.86. As for “AATAATAATAAAAAGGTGCTGAAATATTTTTATTAT [GTGCAC_site9763]”, the figure is 6.6; as for “ATAAATTATAATAACTGTACAAAAATAATATATTCA [XGTACX_site1856]”, 6.48; as for “GTTAGTTTTAGTTCATGTACATAATAGAAAATATAT [XGTACX_site7125]”, 6.63.
